# Some of the results follow.
# System: T1, C. trachomatis L2/434/Bu expressing GFP (CTL2-GFP)
# T1 construct: L2/434/Bu GFP intracellular growth in HeLa cells
# Parameters: species or system HeLa; C. trachomatis total inclusion area by high-content imaging, normalised to DMSO
# Conditions: total inclusion area; 28.5 h, 10 µM; inhibitor
# In short: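 Post-fluorescence-read fixation, DNA staining with Hoechst and high-content imaging; GFP inclusion area and number per well, and nuclei counts, used as proxies for bacterial growth and host viability.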
row,SMILES,% of control remaining
1,COc1ccc(/C=C(\NC(C)=O)C(=O)N2CCNCC2)cc1 [CBK077408],90.3151
2,CCc1c(C)nc2ccc(Br)cc2c1SCCC(=O)O [CBK126914],81.8453
3,Cc1ccc(CCn2cc(C)nc2C)cn1 [CBK021231],90.738
4,CCOC(=O)Nc1ccc2c(c1)N(C(=O)CCN1CCOCC1)c1ccccc1CC2 [CBK261291C],109.29
5,Nc1cc(Cl)cc2[nH]c(=O)c3cc(Cl)ccc3c12 [CBK017144],25.8002
6,O=C(N/N=C/c1ccc(Br)s1)c1cccc([N+](=O)[O-])c1 [CBK261354],87.2561
7,COc1ccc(C(=O)Nc2nc(OCC(F)(F)F)cnc2/C=C\c2ccccc2)c(OC)c1 [CBK145367],117.4
8,O=C(Nc1ccccc1)c1ccc(F)cc1-n1cnnn1 [CBK287903],101.193
9,O=C1CCC(=O)N1CCOc1nccnc1OC1CCNCC1 [CBK075084T],91.2887
10,Cn1ccnc1C1(O)CCN(C(=O)NC2CCCCC2)CC1 [CBK282275],75.2616
11,COCCNC(=O)c1cnn2c(C)c(Cc3ccccc3C)c(C)nc12 [CBK160253],77.8852
12,COc1cc(C)c(C)cc1S(=O)(=O)N1[C@@H](c2ccccc2F)C[C@@H]2NC(=O)CCC[C@H]21 [CBK286012],78.9145
13,CN1C(=O)COc2ccccc2C/C=C/C[C@@H]2[C@H]1CCCN2C(=O)Cn1ccc(=O)[nH]c1=O [CBK292093],121.267
14,CCc1ccc(OCC(=O)NC(=S)Nc2cccc3nsnc23)cc1 [CBK267173],99.598
15,CCCc1cc(O)n(-c2nc3ccccc3[nH]2)n1 [CBK270269],76.1059
16,Cn1c(NC(=O)CSc2nnc(Cc3cccc4ccccc34)o2)cc(=O)n(C)c1=O [CBK266055],98.9224
17,O=C(CSc1ccc(Cl)cc1)Nc1cc(Cl)ccc1C(=O)O [CBK264217],112.356
18,O=C(N/N=C\c1cccc(OC(=O)c2cccs2)c1)c1ccc([N+](=O)[O-])cc1 [CBK262289],121.523
19,O=C1CC(c2ccc(Cl)cc2)CC(=O)C1=CNCCN1CCN(C(=O)Nc2ccccc2)CC1 (stereo not shown) [CBK263671],97.0229
20,O=C(O)CCC(=O)N1N=C(c2c(-c3ccccc3)c3cc(Cl)ccc3[nH]c2=O)CC1c1ccccn1 (stereo not shown) [CBK296106],153.154
21,CSc1nc(N)nc(SC(C(=O)O)c2ccccc2)c1C#N (stereo not shown) [CBK267461],92.3526

row,SMILES,% of control remaining
1,CCCCOc1ccc(NC(=O)NC(=O)C2CCN(CCc3ccc(Br)cc3)CC2)cc1 [CBK035096],99.6845
2,CCCN(CCC)C(=O)c1ccc(-n2nc(C(=O)OCC)c(Br)c2C)cc1 [CBK114363],68.9867
3,c1ccc(Oc2cccc(CN3CCOCC3)c2)cc1 [CBK261870],106.659
4,COc1cccc(NC(=O)N[C@H]2C[C@@H](c3nc(-c4ccccn4)no3)N(C)C2)c1 [CBK288853],78.4934
5,O=C(NCc1ccc(F)cc1)N1CCCC(CO)C1 (stereo not shown) [CBK156056],92.1535
6,N#Cc1ccc(NCC(=O)Nc2ncccc2O)cc1 [CBK306413],114.329
7,CC(Oc1cccc(Cl)c1)c1nc(-c2cccs2)no1 (stereo not shown) [CBK293984],68.3966
8,O=C(Cc1ccc(F)cc1)N1CCOC(Cn2ccnc2)C1 (stereo not shown) [CBK282875],95.069
9,COc1ccc(CC(=O)Nc2ccc(OCC(=O)O)cc2)cc1 [CBK264244],92.8996
10,CCCCN(C)c1c(C)nc2c(OCC(=O)c3ccc(F)cc3)cccn12 [CBK147172],130.886
11,COc1ccc(-c2noc([C@@H]3C[C@H](NC(=O)c4ccc(F)cc4)CN3C)n2)cc1 [CBK288861],107.337
12,O=C(c1ccsc1NS(=O)(=O)c1ccc2ccccc2c1)N1CCOCC1 [CBK042278],98.6532
13,O=c1[nH]n(-c2ccccc2)c(=O)n1Cc1ccccc1F [CBK122770],118.01
14,C=CCc1cccc(Cl)c1OCCN1CCN(C)CC1 [CBK269734C],85.902
15,CCOC(=O)C1CN(C(=O)N(CCN)Cc2ccc(Cl)cc2)CC1c1ccccc1 (stereo not shown) [CBK001682C],84.3075
16,O=C(CSc1ncn(-c2ccccc2)n1)Nc1ccccc1Cl [CBK265593],101.584
17,CCn1ccnc1CN1CCOC(Cc2ccccc2Cl)C1 (stereo not shown) [CBK306625],64.4699
18,COC(=O)N1CC2(CCCCC2NCCC(F)(F)F)c2ccccc21 (stereo not shown) [CBK083539T],99.9594
19,CC(C)(CC(=O)O)CC(=O)Nc1cc(S(=O)(=O)N2CCCC2)ccc1Cl [CBK296702],120.274
20,O=C(NCc1ccccn1)c1cncc(Br)c1 [CBK265226],78.8311
21,C=CCNc1nccnc1-c1ccc(C(C)=O)s1 [CBK037052],131.003

row,SMILES,% of control remaining
1,Nc1cc2cccnc2nc1-c1ccncc1 [CBK067601],100.868
2,COC(=O)c1ccc(NS(=O)(=O)c2cccc3cccnc23)cc1 [CBK028694],98.2458
3,C=C(C)CN1CCN(C(=O)c2cc3cccc(OC)c3oc2=O)CC1 [CBK269211],78.8993
4,Nc1ncc(-c2ccoc2)nc1NCc1ccco1 [CBK063652],90.8799
5,Fc1cccc2sc(Nc3nnc(-c4ccco4)o3)nc12 [CBK287480],97.3856
6,Fc1ccc(CNCCN2CCOCC2)cc1 [CBK278192C],72.076
7,COCCNc1nc2c(c(N3CCC(C#N)CC3)n1)CCNCC2 [CBK307706],77.3035
8,CCN1CC2(CCN(CCCCC3NC(=O)NC3=O)CC2)c2ccccc21 (stereo not shown) [CBK131489],46.2699
9,CCN(Cc1ccncc1)C(=O)NC(C)c1ccccc1 (stereo not shown) [CBK155156],106.802
10,Cc1cc(C)n2c(SCc3ccccc3)nnc2n1 [CBK025780],90.1222
11,NC(=O)CN1CCC(C(=O)c2ccc(F)cc2)CC1 [CBK149130],104.218
12,COc1ccc(-c2cc(C(=O)NCc3ccc4c(c3)OCO4)cnc2-c2ccccc2)cn1 [CBK037571],101.419
13,c1coc(CNc2cncc(-c3ccc4c(c3)OCO4)n2)c1 [CBK065930],143.221
14,COc1cc(NC(=O)c2cc3c4c(sc3nc2N)CN(C)CC4)c(OC)c(OC)c1 [CBK269597],105.135
15,C=CCOC(=O)C1=C(C)N=C2SCCC(=O)N2C1c1ccc(SC)cc1 (stereo not shown) [CBK073405],80.225
16,Cc1ccsc1CN(Cc1nccn1C)CC(C)O (stereo not shown) [CBK282976],86.8632
17,Cc1nc2ccccn2c1CN1CCC(N2CCCC2)CC1 [CBK281730],87.0365
18,COc1nccnc1OC1CCN(CCc2ccc(F)cc2)CC1 [CBK084259],103.01
19,CN1CCN(C(=O)c2ccc(NS(=O)(=O)c3ccc(Oc4ccccc4)cc3)cc2)CC1 [CBK034559],82.9106
20,Cc1cccc(C)c1OCC(=O)Nc1c[nH]c(=O)[nH]c1=O [CBK263358],39.6595
21,CC(=O)c1cn(CCC(=O)NC2CCCOC2)c2ccccc12 (stereo not shown) [CBK282515],110.811

row,SMILES,% of control remaining
1,CCN(CC)CCn1cc(C2CCCN(C)CC2)c2ccccc21 (stereo not shown) [CBK023788B],68.9539
2,CC(=O)Nc1ccc(-c2ccc(C(=O)N3CCN(C(=O)c4ccco4)CC3)cn2)cc1 [CBK160186],73.8755
3,Cc1ccccc1-n1c(C)cc(C(=O)CSc2nncn2C)c1C [CBK298330],91.2975
4,Cc1cnn(-c2cc(Oc3ccccc3)ncn2)c1 [CBK287276],87.928
5,CN1CCN(C)C(CNC(=O)c2ccc(-c3ccccc3CO)cc2)C1 (stereo not shown) [CBK307475],104.19
6,O=C1CC2(CCN(C(=O)C3CCCC3)CC2)Oc2ccc(Cl)cc21 [CBK283625],79.9941
7,O=C(CCc1ccno1)NC(Cc1ccsc1)c1cccnc1 (stereo not shown) [CBK285395],115.692
8,O=C(Nc1cccc2[nH]ccc12)c1ccc(Br)cc1Cl [CBK159643],76.5642
9,CN(C)c1cccc(C(=O)N2CC[C@@H](c3ccccc3)[C@H](O)C2)c1 [CBK283713],119.812
10,CCOc1ccccc1NC(=O)NC1CC2CCC(C1)N2Cc1ccccc1 (stereo not shown) [CBK116294],110.413
11,O=C(NCCN1CCC(O)(c2cccc(F)c2)CC1)C1CCCC1 [CBK283285],107.133
12,Cc1cc(NC(=O)c2ccc(Cl)c([N+](=O)[O-])c2)nc2c1c(=O)oc1ccccc12 [CBK291263],104.595
13,O=C(NCc1ccccn1)Nc1cccc(Cl)c1 [CBK058569],40.6477
14,O=C(Cn1cccn1)NC(Cc1ccsc1)c1ccccn1 (stereo not shown) [CBK285284],79.5193
15,CCNC(=O)C1CCN(Cc2c[nH]nc2-c2ccc(F)cc2)C1 (stereo not shown) [CBK307438],59.3591
16,CC1CN(c2cc(CO)c(F)cn2)CC2(CCOCC2)O1 (stereo not shown) [CBK304773],33.276
17,COc1ccc(N2C(=O)CC(Sc3ncccc3C(=O)O)C2=O)cc1 (stereo not shown) [CBK263387],103.05
18,COC(=O)COc1ccccc1/C=C1\SC(c2ccc(C)cc2)=NC1=O [CBK067741],101.133
19,Cc1cc(C)c2nc(-c3ccccn3)cc(C(=O)Nc3cccc(Cn4cccn4)c3)c2c1 [CBK267723],99.2074
